Results are given in words; binding and its absence hold for the method and conditions named. Binding seen in cells or lysates may run through a third protein.
Biological target: T1, Strep-CDAN1 HMHA1* HMHA2* BDA2* (three elements mutated) (human) (UniProt Q8IWY9)
T1 sequence: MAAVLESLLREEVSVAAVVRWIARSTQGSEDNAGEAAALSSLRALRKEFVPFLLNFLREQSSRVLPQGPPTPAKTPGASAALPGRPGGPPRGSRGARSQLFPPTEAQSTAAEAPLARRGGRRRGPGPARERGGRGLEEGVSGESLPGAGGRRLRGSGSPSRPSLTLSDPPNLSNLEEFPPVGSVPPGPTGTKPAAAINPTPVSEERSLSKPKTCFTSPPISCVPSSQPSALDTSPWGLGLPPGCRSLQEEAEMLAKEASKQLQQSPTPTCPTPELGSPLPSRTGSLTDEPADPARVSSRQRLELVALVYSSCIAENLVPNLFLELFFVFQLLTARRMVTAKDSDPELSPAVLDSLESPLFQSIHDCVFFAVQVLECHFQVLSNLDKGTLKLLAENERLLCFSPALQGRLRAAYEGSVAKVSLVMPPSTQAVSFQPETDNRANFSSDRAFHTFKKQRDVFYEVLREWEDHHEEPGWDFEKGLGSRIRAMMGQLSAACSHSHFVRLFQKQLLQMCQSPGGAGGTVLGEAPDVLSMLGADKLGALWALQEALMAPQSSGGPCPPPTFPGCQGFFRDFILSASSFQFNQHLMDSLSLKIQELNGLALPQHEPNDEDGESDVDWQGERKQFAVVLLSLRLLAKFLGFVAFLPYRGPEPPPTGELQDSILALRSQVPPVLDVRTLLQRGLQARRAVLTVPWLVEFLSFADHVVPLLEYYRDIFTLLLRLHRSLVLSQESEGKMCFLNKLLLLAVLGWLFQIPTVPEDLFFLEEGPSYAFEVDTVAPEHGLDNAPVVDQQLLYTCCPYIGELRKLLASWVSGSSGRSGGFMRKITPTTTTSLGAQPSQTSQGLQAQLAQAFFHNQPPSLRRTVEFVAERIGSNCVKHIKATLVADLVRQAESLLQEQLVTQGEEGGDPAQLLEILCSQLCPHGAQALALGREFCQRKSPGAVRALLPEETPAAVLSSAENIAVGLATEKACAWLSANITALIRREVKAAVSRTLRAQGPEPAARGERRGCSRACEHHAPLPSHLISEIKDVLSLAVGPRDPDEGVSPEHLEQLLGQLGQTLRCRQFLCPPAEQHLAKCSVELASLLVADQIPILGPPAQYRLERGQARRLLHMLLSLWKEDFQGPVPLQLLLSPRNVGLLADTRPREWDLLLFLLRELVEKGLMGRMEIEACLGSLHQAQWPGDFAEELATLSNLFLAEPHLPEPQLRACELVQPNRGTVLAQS
Experiment: pull-down; Strep-Tactin pulldown of transiently transfected ST-CDAN1 variants from Flp-In 293 T-REx lysates; endogenous ASF1A, ASF1B and CDIN1 detected by immunoblotting; IP buffer with 1% Triton X-100, 1 hr at 4 °C

The chains behind the UniProt entries cited, without tags or fusion partners.
UniProt Q9NVP2: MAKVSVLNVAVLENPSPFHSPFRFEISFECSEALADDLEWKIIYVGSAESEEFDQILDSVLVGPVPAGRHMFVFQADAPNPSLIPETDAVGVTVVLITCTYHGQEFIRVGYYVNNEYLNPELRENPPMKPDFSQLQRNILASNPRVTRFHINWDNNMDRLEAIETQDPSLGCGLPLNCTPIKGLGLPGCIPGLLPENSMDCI

binding: no binding
Substance: endogenous ASF1B (from UniProt Q9NVP2 1-202)

From PMC11911400, “Mechanism of ASF1 engagement by CDAN1” (Nature Communications, 2025)
